# According to publication PMC5836133:
# The list shows a part of the results. At the low end of the ranking, values are background and their order means little.
# System: T1, GST-NbGlk1(82-244)
# T1 sequence: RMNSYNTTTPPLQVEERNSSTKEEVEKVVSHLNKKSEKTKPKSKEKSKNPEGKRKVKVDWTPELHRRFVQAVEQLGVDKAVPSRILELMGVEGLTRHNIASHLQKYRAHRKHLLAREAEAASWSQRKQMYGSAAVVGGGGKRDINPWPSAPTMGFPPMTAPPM
# Assay: protein-binding microarray;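 also: rank-based score ranging −0.5 to +0.5 with E above 0.45 taken as significant binding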
# Details: NbGlk1 is a Golden2-like transcription factor of Nicotiana benthamiana; high values mean tight binding; most listed sequences are background and not binding sites; double strand, one strand shown
row,Sequence,binding signal [E-score]
1,AGTTGATC,-0.104
2,ATTTTTGC,0.0673
3,CAGACCTA,-0.137
4,CACATTTA,-0.0183
5,ATCAAGCA,0.0915
6,AACTGAGA,-0.0451
7,CACAAGAG,0.0235
8,ATCTTGCC,0.261
9,ATTTATTA,0.249
10,AACCGGAG,-0.149
11,AGTAAATC,0.241
12,ACAGACAC,-0.0797
13,ATTCGATA,0.239
14,ACGATAAT,0.146
15,ACTACGTA,-0.102
16,ATCACAGA,0.217
17,ACCTCTAA,-0.174
18,CAGAGCAC,-0.176
19,ATGCTCCC,-0.213
20,AGGCATGC,-0.305
21,ATGTATCA,0.164
22,ATTAACGA,0.0874
23,ATCCCGAT,0.294
24,ACCGGGCG,-0.312
25,AATTCCGG,0.0693

row,Sequence,binding signal [E-score]
1,ACTTTATG,-0.000381
2,CAACCTGA,0.0173
3,ACCTTCAG,-0.203
4,ATGACTAA,0.0349
5,AGTAAAAT,0.292
6,ACCCCAGA,-0.189
7,AACGTACA,-0.0481
8,CAATGCTG,-0.0932
9,AATTCCGC,0.124
10,ATACTGAC,0.0556
11,ACCGCCTC,-0.315
12,AGGTTTAT,-0.0917
13,ATTTTGGG,0.261
14,ACATTATC,0.134
15,ACTACGCT,-0.115
16,ACGCAGAT,0.293
17,AGTTCCTG,-0.0821
18,ATATATGC,0.192
19,ATACTAAA,0.135
20,AGAGTCCC,-0.169
21,AGTGAATG,-0.0843
22,ATTACTTG,0.12
23,AAGGCTCT,-0.25
24,ATCTCATC,0.312
25,ATACGGCA,0.113

row,Sequence,binding signal [E-score]
1,AATGAAAG,-0.0895
2,AGCCACCG,-0.198
3,AAGCTTCA,-0.125
4,ATGAGAAG,0.0461
5,ATCAAACC,0.0517
6,ACATCAGG,0.014
7,CACTAGAA,-0.00103
8,AATACAAG,0.0661
9,ATGTGAGC,-0.181
10,ACGCATCT,-0.144
11,ATCTATCG,0.164
12,CAGCAATG,-0.186
13,ATCCTATG,0.0957
14,AGGGCAAC,-0.0981
15,ATAAAGCA,-0.00984
16,AGGCACAG,-0.191
17,CACCGAAA,0.108
18,ACAAGATC,0.295
19,AGCTGTGA,0.00295
20,AATCATTC,0.175
21,ATCGGAAT,0.289
22,ATGTTTCA,0.148
23,ACCATAGG,-0.0416
24,AAAACTAG,0.0742
25,ATAGGATA,0.247

row,Sequence,binding signal [E-score]
1,AGTATGGC,-0.204
2,AGTGCTTA,0.0517
3,AGTGTTAG,-0.145
4,AAAATAAG,0.094
5,AGACGCGG,-0.196
6,ATCCCCGG,0.256
7,ATACGGGC,-0.0782
8,AAAAACTT,0.113
9,ATCCATAA,0.273
10,ATGTTTAC,0.0125
11,ATTTCGGA,0.309
12,ACTCCAAA,0.00614
13,AACCTCGC,-0.0755
14,ATTTCAAA,0.231
15,AAATGTTC,0.00213
16,CACGTGAG,-0.0425
17,ACTCTAGC,-0.17
18,AGAGCGAG,-0.0893
19,ACGCTTAC,-0.053
20,AGAATTGC,0.108
21,ATCCGACG,0.196
22,ATGACGGC,-0.121
23,ACCGGTGG,-0.255
24,CAAATCGG,0.252
25,ATCATATA,0.211

row,Sequence,binding signal [E-score]
1,AAGACACA,-0.035
2,AGGCTCAC,-0.185
3,AATGAACT,-0.121
4,ACAGTCCG,-0.142
5,AGCTAGCA,-0.1
6,ACCAGGAT,0.2
7,AGCAAGGG,-0.101
8,ATCGGACA,0.045
9,CACTCACC,-0.0951
10,ATGTGCGA,0.0859
11,AGGCAACT,-0.127
12,AGGTGTGA,0.0761
13,ATCGTGGC,0.0619
14,CAACGTCA,-0.0614
15,ACGGAACC,-0.023
16,ATCCTACA,0.298
17,AATGGATG,0.101
18,AAGCTGTA,-0.0326
19,ATGTGTAC,-0.00202
20,ACGCCGAA,0.0399
21,AAAAGAAA,0.178
22,AGGGCAGG,-0.258
23,ACGGGAAT,0.324
24,AACGTCAA,-0.0144
25,ATCCCTAC,0.121

row,Sequence,binding signal [E-score]
1,AGTTAGAT,0.26
2,AAATCGCA,0.379
3,AGATTCAC,0.289
4,ATCCCATA,0.279
5,CACCATGA,-0.0485
6,AAAGCGCG,0.0534
7,ACCGGCCA,-0.214
8,AGCAACCG,-0.232
9,AGTAATGC,-0.021
10,AGATAAAT,0.0951
11,AAATCCTC,0.414
12,ATAATCGC,0.207
13,AACGTCAC,-0.152
14,ATCGTGTC,0.225
15,ACGCTCCC,-0.128
16,AACCACTC,0.012
17,AAAACATG,-0.0415
18,ATAGGAGA,0.0837
19,AGGGGTGG,-0.126
20,AGATAGGA,0.0391
21,AAAGGGGA,-0.0574
22,ATGCGATA,0.191
23,AGGTTAAG,-0.0954
24,AATCGAGA,0.293
25,ACTACAGC,-0.155

row,Sequence,binding signal [E-score]
1,ACGGAATG,0.0185
2,AAGTCTAC,-0.221
3,ACTGCTCA,-0.0694
4,AACACTCC,-0.174
5,ACTCTGAT,0.136
6,AAGCTCTC,-0.22
7,ACTGTATC,-0.0161
8,ACTACTAA,0.0966
9,AAAGAATG,0.0221
10,AAGAGTTA,0.0236
11,AACTAGAG,-0.15
12,ACTCTGGC,-0.224
13,AAACCAGG,-0.212
14,ATCTAAGC,0.262
15,ATATAGGG,0.00847
16,ACTGAATG,-0.0978
17,ACTCAAGG,0.0715
18,CACGCCTC,-0.195
19,ATGGATTA,0.326
20,AACTAGTT,0.00818
21,ATTGTGGG,0.191
22,CAGCAGTA,-0.12
